Laboratory results published in PMC12136788.
This is one part of the list.

T1: UNK ZnF1-3 (human, UniProt Q9C0B0 31-174)
T1 sequence: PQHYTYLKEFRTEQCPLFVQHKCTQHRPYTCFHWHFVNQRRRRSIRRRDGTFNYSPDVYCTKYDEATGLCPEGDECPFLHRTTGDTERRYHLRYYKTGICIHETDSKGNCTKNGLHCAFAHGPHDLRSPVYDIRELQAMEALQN

B1: chr16:94651144:94651145:+_ENSMUSG00000040785_ENSMUST00000117648|mus_hu|mus_mus_mus_hu_True|58_58 (ssRNA)
RNA: GGGAGUUCUACAGUCCGACGAUCAUUUUCUUGAAUCAAGUGGCGAAUAACAUAGUCCACUGCUUCAUUUAGAAAAUUUUUGCUAGAAAAACAGGUUGUAUAGUCUUCUGUGCUCAAAACUUUCCAAGAAAGCAAUUCUUUGAGCAACAGAGGAUUGAGCAUCA
B2: chr3:45748292:45748293:+_ENSG00000211456_ENST00000389061|hu_mus|FALSE|FALSE (ssRNA)
RNA: GGGAGUUCUACAGUCCGACGAUCGGCUCUCCAGACCGCAUGAUUAAAACAUUCACCUACUUUCAUCUUUUUGGUGAUGACAACAAGAUAAUUACCUGCCACCAGAUGGAUUGUGCCCAGUAUCCCAAAUAUUGGUCUUGUAACCAACAGAGGAUUGAGCAUCA
B3: 36449382_36449502_1153_CDS_ENSG00000112078_ENST00000373731|human|control|control (ssRNA)
RNA: GGGAGUUCUACAGUCCGACGAUCGUCUUCAUCCCAGUCCACAGAAUCCUCAUCCGUCAGCACAACAAUGUGGCACUCUCGUUCUCCUUUCUUGGCACAGCCCACCAUGAUGGGCAAGAUGAGCUCUUCGAGGUAGUGAUCAAACAACAGAGGAUUGAGCAUCA
B4: chr3:148802587:148802588:-_ENSG00000071794_ENST00000310053|hu_mus|hu_hu_hu_mus_False|68_108 (ssRNA)
RNA: GGGAGUUCUACAGUCCGACGAUCUCCAACCACAUGACCUCUCAUAGUUCCAAAUAAAACCAAAUCUACUUCUUCAUCACUCGUUAGGAAGUCAUCUGGAGGAAUAAUGUCUUGGAAUUCAAAAUGUGGCAAGAAAGUUGAGUACAACAGAGGAUUGAGCAUCA
B5: chr3:98518469:98518470:-_ENSG00000057019_ENST00000326840|hu_mus|FALSE|FALSE (ssRNA)
RNA: GGGAGUUCUACAGUCCGACGAUCAGCGUGAGGCUGGGUCCCUGCAGUUUUGAAGGUGGAUGUGGAGGGCAGACCAACUGAGGCUGUGGGGUGCCCUGACAUGUCCAUGACGAUCGGGGUUGCGUACUCAGGCCCCGUUACGGGCAACAGAGGAUUGAGCAUCA
B6: chr3:15292738:15292739:+_ENSG00000131375_ENST00000253693|hu_hu|motif|central (ssRNA)
RNA: GGGAGUUCUACAGUCCGACGAUCAGCCAGUAACUUGAGAUUUCUCCAUCACUGAAGUUGUGUGAUCUUGAUGGGGAUAAUACGGUUAAAGUCCAAGAAAAAAGGUCCUUCUUGUUUAGGCAAAAAGGUACUAGGAAUGAUAUUCAACAGAGGAUUGAGCAUCA

The binders below were run against T1, UNK ZnF1-3 (assay: nsRBNS (natural sequence RNA bind-n-seq); RBNS binding buffer (assumed for nsRBNS): 25 mM Tris pH 7.5, 150 mM KCl, 3 mM MgCl2, 0.01% Triton X-100, 500 ug/ml BSA, 20 U/ml SUPERase-In, 4 C; UNK is unkempt and MSI1 is Musashi-1; names of the RNAs are library labels; protein concentration not given here; high values mean tight binding).

Row | Binder | binding signal [enrichment R]
1 | B1 | 0.394
2 | B2 | 1.61
3 | B3 | 0.881
4 | B4 | 1.17
5 | B5 | 1.41
6 | B6 | 0.763
